Source: the RNAGym collection of RNA variant scans (doi:10.1093/nar/gkz1192)
Read counts are not given, so values of variants with three or more changes are uncertain.

B1: CPEB3 Ribozyme (parent)
chain: UAACAGGGGGCCACAGCAGAAGCGUUCACGUCGCAGCCCCUGUCAGAUUCUGGUGAAUCUGCGAAUUCUGCUGUAUAUCUC

Variants of: B1
Assay: self-cleavage, relative activity (ratio to wild type); higher = more cleavage; in vitro, sequencing
How it was run: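 Barcoded CPEB3 ribozyme mutants, produced by rounds of error-prone PCR, self-cleaved while being transcribed with T7 RNA polymerase for 5 hours at 37°C and during a subsequent 15 min DNase I step before EDTA was added. Sequencing of template-switched cDNA on Illumina gave cleaved and total reads, and DNA sequencing assigned barcodes to variants. Each variant's relative activity is its cleaved/total read fraction divided by the unmutated ribozyme's fraction, averaged across three batches. A variant needed a minimum of 5 reads.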
With UAACAGGAGGCCACAGCAGAAGCGUUCCCGUCGCAGCCCCCGUCAGAUUCCGGUGAAUCUGCGAACUCUGCCGUAUAUCUC [G8A A28C U41C U51C U66C U72C] the self-cleavage was 0.26. For UAACAGGAGGCCACAGCAGGAGCGUUCGCGUCGCAGCCCCUGUCAGAUUCUGGUGAAUAUGCGAAUUCUGCUCUAUAUCUC [G8A A20G A28G C59A G73C], the self-cleavage was 0.07. UAACAGGAGGCCACAGCAGAGGCGUUCACGUCGCAGCCCCUGUCCGAUUCUGGCGAAUCUGCGAACUCUGCUGUAUAUCUC [G8A A21G A45C U54C U66C] gave a self-cleavage of 0.05. In the case of UAACAGGAGGCCACAGCUGUAGCGUUCACGUCGCAGCCCCUGUCAGAUUCUGGUGAAUCUGCGAAUUCUGCUGUAUAUCUC [G8A A18U A20U], the self-cleavage is reported as 0.49. With UAACAGGAGGCCACAGCAGAAGCGUUCACGUCGCAGACCCUGUCAGAUUCUGGCGAAUCUGCGAAUUCUGCUGUAUAUCUC [G8A C37A U54C] the self-cleavage was 0.06. Work on UAACAGGAGGCCACAGCAGAAGUGUCCACGUCGCAGCCCCUGUCAGAUUCUGGCGAAUCUGCGAAUUCUGCUGUAUAUCUC [G8A C23U U26C U54C] yielded a self-cleavage of 0.06. With UAACAGGAGGCCACAGCAGGAGCGUUCGCGUCGCAGCCCCGGUCAGUUUCUGGUGAAUCUGCGAGUUCUGCUGUUUAUCUC [G8A A20G A28G U41G A47U A65G A75U] the self-cleavage was 0.03. Variant UAACAGGAGGCCACAGCAGAAGCGUUCACGUCGCAGCCCCUGUCAGAUUCUGGUGGAUCUGCGAAUUCUGCUGUAUAUCCC [G8A A56G U80C] has a self-cleavage of 0.05. In the case of UAACAGGAGGCCACAGCAGAAGCGUUCACGUUGCAGCCCCUGUCAGAUUCUGGUGAAUCUGCGAAUUCUGCAGUAUAUCUC [G8A C32U U72A], the self-cleavage is reported as 0.07. Work on UAACAGGAGGCCACAGCAGAAGCGUUCACGUCGCAGCCCCUGUCGGAUUCUGCUGAAUCUGCGAAUUCCGCUGUAUAGCUC [G8A A45G G53C U69C U78G] yielded a self-cleavage of 0.05. Work on UAACAGGAGGCCACAGCAGAAGCGUUCGCGUCGCAGCCCCUGUCAGAUUCUGGGGAAUCCGCGAAUUCAGCUGUAUAUCCC [G8A A28G U54G U60C U69A U80C] yielded a self-cleavage of 0.05. Work on UAACAGGAGGACACAGCAGAAGCGUUCAUGUCGCAGCCCCUGUCAGAAUCUGGUGUAUCUGCGAAUUCUGCUGUAUAUCUC [G8A C11A C29U U48A A56U] yielded a self-cleavage of 0.04. Work on UAACAGGAGGCCACAGCAGAGGCGUUCACGUCGCAGCCCCUGUCAGAUUCUGGUGAAUCUGCGAAUUGUGCUGUAUAUCUC [G8A A21G C68G] yielded a self-cleavage of 0.07. UAACAGGAGGCCACAGCAGGAGCGUUCACGUCGCAGCCCCUGUCUGAUUCUGGUGAAUCUGCGAAUCCAGCUGUAUAUCCC [G8A A20G A45U U67C U69A U80C] showed a self-cleavage of 0.05. In the case of UAACAGGAGGCCACAGCUGAAGCGUUCACGUCGCAGCCCCUGUCAGAUUCUGGUGAAUCUGCGAGUUCUGCUGUAUAUCUC [G8A A18U A65G], the self-cleavage is reported as 0.06. With UAACAGGAGGCCACAGCAGAAGCGUUCACGUCGCAGCCCCUGUCAGGAUCUGGUGAAUCUGCGAAUCCUGCUGUAUAUCUC [G8A A47G U48A U67C] the self-cleavage was 0.07. Work on UAACAGGAGGCCACAGCUGAAGCGUUCACGUCACAGCCCCUGUCAGAUUCUGGUGAAUCUGCGAAUUCUGCCGUAUAUCUC [G8A A18U G33A U72C] yielded a self-cleavage of 0.05. Variant UAACAGGAGGCCACAGCAGAAGCGUUCUCGUCGCAGCCCCUGUCAGAUUCUGGUGAAACUGCGAAUUCUGCUGUAUAUCUC [G8A A28U U58A] has a self-cleavage of 0.07. In the case of UAACAGGAGGCCACAGCAGAAGAGUCCACGUCGCAGCCCCUGUCAGAUUCUGGUGAAUCUGCGUAAUCUGCUGUAUAUCUC [G8A C23A U26C A64U U66A], the self-cleavage is reported as 0.07. UAACAGGAGGCCACAGCAGAAGCGUUCUCGUCGCAGCCCCUGUCAGAUUCUGGUGAAUCUGCAAAUUCUGCUGUAUAUCUC [G8A A28U G63A] gave a self-cleavage of 0.21. Work on UAACAGGAGGCUUCAGCAGAAGCGUUCACGUCGCUGCCCCAGUCAGAUUCUGGUGAAUCUGCGAAUUCUGCUGUAUAUCUC [G8A C12U A13U A35U U41A] yielded a self-cleavage of 0.04. UAACAGGAGGCCACAGCAGAAGCGUUCACGUCGCCGCACCUGUCAGAUUCUGGUGAAUCUGCGAAUUCUGCUGUAUAUCUC [G8A A35C C38A] showed a self-cleavage of 0.05. Variant UAACAGGAGGCCAAAGCAGAAGCGUUCAUGUCGCAGCCCCUGUCAGAUUCUGGUGAACCCGCGAAUUCUGCCGUAUAUCUC [G8A C14A C29U U58C U60C U72C] has a self-cleavage of 0.09. UAACAGGAGGCCACAGCAGAGACGUUCACGUCGCAGCCCCUGUCCGAUACUGAUGAAUCUGCGAAUUCUGCUGUAUAUCUC [G8A A21G G22A A45C U49A G53A] showed a self-cleavage of 0.16. UAACAGGAGGCCACAGCAGAAGCGUUCACGUCGCUGCCCCUGUCAGAUUCUGGUGAAUCUGCGAAUUCUGCCGCAUAUCUC [G8A A35U U72C U74C] showed a self-cleavage of 0.06. For UAACAGGAGGCCACAGCAGGAGCGUUCACGUCGCAGCCCCUGUCAGAUUCUGGUGAAUCUGCGAACUCUGCUGUAUAUCUC [G8A A20G U66C], the self-cleavage was 0.2. In the case of UAACAGGAGGCCACAGCAGACGCGUUCACGUCCCAGCCCCUGUCAGAUUCUGGUGGGUCUGCGAAUUCUGCUGUAUAUCUC [G8A A21C G33C A56G A57G], the self-cleavage is reported as 0.4. For UAACAGGAGGUCACAGCAGAAGCGUUCACGUCGCAGCCCAUGUCAGAGUCUGGUGAAUCAGCGAAUUCUGCUGUAUGCCUC [G8A C11U C40A U48G U60A A77G U78C], the self-cleavage was 0.03. Variant UAACAGGAGGCCACAGCAGAAGCGUUCACGUCGCGGCCCCUGACAGAUUCUAGUGAAUCUGCGAAUUCUGCUGCAUAUCCC [G8A A35G U43A G52A U74C U80C] has a self-cleavage of 0.69. UAACAGGAGGCCACAGCAGAAGCGUUCUCGUCGCAGCCCCUGUCAGAUUCUGGCGAAUCUGCGAAUUCUGCUGUAUUUCUC [G8A A28U U54C A77U] gave a self-cleavage of 0.11. UAACAGGAGGCCACAGCUGAAGCGUUCACGUCGCAGCCCCUGUCAGAUUCUGGUGAAUCUUCGAAUUCUGCUGUAUAUCUC [G8A A18U G61U] showed a self-cleavage of 0.1. UAACAGGAGGCCACAGCUGAAGCGUUCACGUCGCAGCCCCUGUCAGAUUCUGGUGAGUCUGCGAAUUCUGCUGUACAUCCC [G8A A18U A57G U76C U80C] gave a self-cleavage of 0.04. Variant UAACAGGAGGCCACAGCAGAAGCGUUCACGUCGCGGCCCCCGUCAGAUUCUGGUGUAUCUGCGAAUUCUGCUGUAUAUCUC [G8A A35G U41C A56U] has a self-cleavage of 0.64. With UAACAGGAGGCCACAGCAGAAGCGUUCACGUCGCAGCCCCUGUCAGAUUCUGGUGAAUCUGCGAGUUCUUCUGUAUGUCCC [G8A A65G G70U A77G U80C] the self-cleavage was 0.02.
